In PubChem BioAssay AID588855 (National Center for Advancing Translational Sciences (NCATS), 2011):
Out of some 410,000 compounds screened, about 5,000 (1.2%) were called active. The shares of active, inactive and inconclusive entries below differ from those in the screen. Calls come from the whole dose curve; as a rule, active = well fitted inhibition curve with a large enough effect; inconclusive = small, poorly fitted or top-dose-only effect; inactive = no such curve, though single readings can be large or run the other way. A potency beside an inconclusive call is a rough fit, not a confirmed value.
% is set by controls: 0 for no effect and ±100 for the full control effect; potency is the fitted concentration of half-maximal effect; tags give direction and shape of the fitted curve.

Test: qHTS for Inhibitors of TGF-b; note: nearly all actives have a fitted effect of over 65% in size
Details: HepG2 CAGA-GFP TGF-b/SMAD3 reporter, GFP fluorescence, 18 h, TGF-beta stimulated, 500 pg/mL final; series mostly up to 46.1 µM; activity, negative = inhibition: at the top concentration
Procedure, shortened: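 HEPG2 CAGA-GFP cells (1000/well, DMEM with 1% FBS) were pre-incubated 2 h at 37 degrees C, given compound by pin tool, then stimulated with TGF-beta at 500 pg/mL final for 18 h before per-cell GFP fluorescence imaging.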
In the case of `COc1ccc2oc(-c3ccc(C)c(NC(=O)CSc4ccc(Cl)cc4)c3)nc2c1`, the Potency is reported as inconclusive: 0.708 µM [inhibitor, full curve, poor fit]. For `CCOc1cc(C2C(C(=O)OC)=C(C)NC3=C2C(=O)c2ccccc23)c(Br)cc1O` (stereo not given), the Potency was inconclusive: 20 µM [inhibitor, partial curve, poor fit]. In the case of `CCCn1c(NC(=O)CCNC(=O)c2ccccc2Cl)nc2ccccc21`, the Potency is reported as inconclusive: 35.5 µM [inhibitor, single point]. With `CC(=O)N1c2ccc(S(=O)(=O)N3CCN(c4cccc(Cl)c4)CC3)cc2CC1C` (stereo not given) the “activity, negative = inhibition” value was inactive: -7.93%. For `COc1ccc(NC(=O)COC(=O)Cc2cccs2)cc1Cl`, the “activity, negative = inhibition” value was inactive: 5.39%. In the case of `COCC(=O)N1CCC(Oc2ccc(C(=O)N3C[C@@H]4CCC[C@H]3C4)cc2)CC1`, the “activity, negative = inhibition” value is reported as inactive: -0.824%. For `O=C(CNC(=O)c1cccs1)c1ccc([N+](=O)[O-])cc1`, the Potency was inconclusive: 6.31 µM [inhibitor, partial curve, poor fit]. For `CCCOc1ccc(Cc2c(Cl)nc(SC)nc2N(C)C)cc1`, the Potency was inconclusive: 10 µM [inhibitor, single point]. For `CCCNC(=O)C1(C)CCCN(C(=O)c2ccc(F)cc2Cl)C1` (stereo not given), the “activity, negative = inhibition” value was inactive: -5.43%. For `CC(C)(C)C(=O)Nc1ccc(Cc2ccncc2)cc1`, the “activity, negative = inhibition” value was inactive: -1.68%. With `O=C(CN(Cc1cccs1)C(=O)CNS(=O)(=O)c1ccccc1)NC1CCCC1` the Potency was inconclusive: 3.55 µM [inhibitor, single point]. With `N#CC(=Cc1ccc(-c2ccccc2)cc1)C(=O)c1ccccc1` the “activity, negative = inhibition” value was inactive: -28.4%. With `CCc1c(C)nc2nc(-c3ccccc3)nn2c1NCc1ccc(C)cc1` the Potency was inconclusive: 17.8 µM [inhibitor, partial curve, poor fit]. For `C/C=C/c1ccc(OCCOc2cccc3cccnc23)c(OC)c1`, the “activity, negative = inhibition” value was inactive: 0%. In the case of `Clc1ccccc1-c1nnc2sc(C3COc4ccccc4O3)nn12` (stereo not given), the “activity, negative = inhibition” value is reported as inactive: -14.3%. For `CCCCC(=O)NC(c1ccc(N(C)C)cc1)c1ccc2cccnc2c1O` (stereo not given), the Potency was inconclusive: 1.78 µM [inhibitor, partial curve, poor fit]. With `O=C(CN1C(=O)NC(c2ccccc2)(c2ccccc2)C1=O)N1CCN(c2ccc(F)cc2)CC1` the Potency was inconclusive: 12.6 µM [inhibitor, partial curve, poor fit]. In the case of `COc1ccc(CNC(=O)c2ccc(-c3nc(CS(=O)c4ccc(C)cc4)c(C)o3)cc2)cc1` (stereo not given), the Potency is reported as inconclusive: 20 µM [inhibitor, single point]. With `CCn1c(SCC(N)=O)nc2c(c1=O)C1(CCCC1)Cc1ccccc1-2` the Potency was inconclusive: 35.5 µM [inhibitor, single point]. For `COc1ccc(C2CC(c3ccccc3Cl)Nc3ncnn32)cc1OC` (stereo not given), the Potency was inconclusive: 35.5 µM [inhibitor, single point]. For `Cc1ccc(CN2CC(C(=O)N3CCN(c4ccccc4Cl)CC3)CC2=O)cc1` (stereo not given), the Potency was inconclusive: 35.5 µM [inhibitor, single point]. With `C=CCN(CC=C)S(=O)(=O)c1ncn[nH]1` the “activity, negative = inhibition” value was inactive: 14.8%. For `CCOC(=O)C1=CN(Cc2cccc(-c3cccnc3)c2)S(=O)(=O)N(CC)C1C` (stereo not given), the “activity, negative = inhibition” value was inactive: -20.6%. In the case of `CC(=O)Nc1ccc(NC(=O)C2Cc3ccccc3N2C(=O)c2ccccc2)cc1` (stereo not given), the “activity, negative = inhibition” value is reported as inactive: -11.5%. For `CCCCOC(=O)c1ccc(N/C(=N\S(=O)(=O)c2ccccc2)c2ccccc2)cc1`, the Potency was inconclusive: 25.1 µM [inhibitor, single point]. For `O=C1c2ccc3c4c(ccc(c24)C(=O)N1CCCCO)C(=O)N(CCCCO)C3=O`, the Potency was active: 2.51 µM. With `O=C(NCC(=O)N1CCN(Cc2ccccc2)CC1)c1ccc(Br)cc1` the “activity, negative = inhibition” value was inactive: -17.3%. For `COc1cc(OC)c2c(-c3ccccc3)cc(=O)oc2c1C(CCN1CCOCC1)c1ccc2c(c1)OCO2` (stereo not given), the Potency was inconclusive: 25.1 µM [inhibitor, single point]. For `CC1=C(C(=O)OC2CCCCCC2)C(c2ccc(Cl)cc2)CC(=O)N1` (stereo not given), the Potency was inconclusive: 15.8 µM [inhibitor, single point]. In the case of `Cc1cc(C)c(NC(=O)Cc2ccc(-n3c(C)nc4cccnc43)cc2)c(C)c1`, the Potency is reported as active: 12.6 µM. With `Cc1ccc(Nc2cc(C)nc3c(C)cccc23)cc1` the Potency was inconclusive: 11.2 µM [inhibitor, single point]. For `C[C@H](CO)N1C[C@H](C)[C@@H](CN(C)Cc2ccccn2)Oc2ncc(-c3ccccc3)cc2C1=O`, the “activity, negative = inhibition” value was inactive: -1.32%. For `CCc1nc(SCC(=O)c2ccc3c(c2)OCCO3)c2ccccc2n1`, the “activity, negative = inhibition” value was inactive: -15.5%. With `CC(C)(C)c1ccc(C(=O)Nc2ccc(C(=O)NCc3cccnc3)cc2)cc1` the “activity, negative = inhibition” value was inactive: 5.69%. In the case of `CCOc1ccc(NC(=O)CN(C)C(=O)c2ccc(OCc3ccccc3)c(OC)c2)cc1OCC`, the Potency is reported as inconclusive: 20 µM [inhibitor, single point]. For `C=CCn1c(CCNC(=O)c2cccs2)nnc1SCC(=O)c1ccc(Cl)cc1`, the Potency was inconclusive: 25.1 µM [inhibitor, single point]. In the case of `CC(C)NC(=S)N=Nc1c(O)[nH]c2ccc(C(C)C)cc12`, the Potency is reported as inconclusive: 8.91 µM [inhibitor, partial curve, poor fit]. In the case of `CCCCn1c(SCC(=O)NCC2CCCO2)nc2ccc(N3CCOCC3)cc2c1=O` (stereo not given), the Potency is reported as inconclusive: 31.6 µM [inhibitor, partial curve, poor fit]. With `Cc1ccc(C(=O)N[C@H](C(=O)OCc2cc(=O)n3c(n2)sc2ccccc23)C(C)C)cc1` the Potency was inconclusive: 12.6 µM [inhibitor, partial curve, poor fit]. In the case of `COc1ccc(CN2CCN(CCCc3ccccc3)C(CCO)C2)c(O)c1` (stereo not given), the “activity, negative = inhibition” value is reported as inactive: 6.64%. With `O=C(Nc1nnc(-c2ccccc2)o1)c1cc(-c2cccs2)nc2ccccc12` the Potency was inconclusive: 11.2 µM [inhibitor, partial curve, poor fit]. In the case of `O=C(Nc1ccc(-c2cn3ccsc3n2)cc1)C1CC1`, the “activity, negative = inhibition” value is reported as inactive: 3.08%. In the case of `COc1ccc(Cl)cc1S(=O)(=O)N1CCN(C(=O)c2cc(-c3ccc(Br)cc3)n[nH]2)CC1`, the Potency is reported as active: 8.91 µM. In the case of `O=C(NCc1ccccc1)C1=C[C@@H](c2ccc(C(F)(F)F)cc2)C[C@@H](OCCCCO)O1`, the Potency is reported as inconclusive: 14.1 µM [inhibitor, single point]. With `C[C@@H](C(=O)Nc1ccc2ccccc2c1)[C@H]1C[C@]1(C)[C@H](N)c1ccccc1` the “activity, negative = inhibition” value was inactive: -20.2%. With `Cc1cc(NC(=O)CN2CCOCC2)n(-c2ccccc2)n1` the “activity, negative = inhibition” value was inactive: 22.3%. With `CN(c1ccccc1)S(=O)(=O)c1ccc(NC(=O)c2ccc(F)cc2)cc1` the Potency was inconclusive: 14.1 µM [inhibitor, single point]. For `Cc1[nH]nc(-c2cccnc2)c1N=NN(C)C`, the Potency was inconclusive: 35.5 µM [inhibitor, single point]. For `COc1cc(N2Cc3ccccc3C2)ccc1C=O`, the Potency was inconclusive: 3.98 µM [inhibitor, full curve]. For `COc1cccc(CN(C)C(=O)c2cccc(S(=O)(=O)N3CCN(c4ccc(F)cc4)CC3)c2)c1OC`, the Potency was inconclusive: 15.8 µM [inhibitor, partial curve, poor fit]. For `CCOc1ccc(CCNC(=O)C2=C(C)C(=O)OC23CCCCC3)cc1OCC`, the Potency was inconclusive: 8.91 µM [inhibitor, partial curve, poor fit]. For `CCN(c1ccc(OC)cc1)S(=O)(=O)c1csc(C(=O)N2CCCC2)c1`, the “activity, negative = inhibition” value was inactive: 5%. For `COC(=O)C(C(=O)OC)[C@@H]1C=C[C@H](C[N+](=O)[O-])N(C(C)=O)C1`, the “activity, negative = inhibition” value was inactive: -1.21%. With `Cc1ccc(S(=O)(=O)NCCC(=O)NNC(=O)COc2ccc(Br)cc2)cc1C` the Potency was inconclusive: 11.2 µM [inhibitor, partial curve, poor fit]. For `COc1ccccc1CNC(=O)c1ccc(CSc2nc3ccncc3n2Cc2cccc(F)c2)cc1`, the Potency was inconclusive: 35.5 µM [inhibitor, single point]. With `CC1(C)SC(=S)N(NC(=O)Nc2ccccc2)C1N(O)C(=O)Nc1cccc2ccccc12` (stereo not given) the Potency was inconclusive: 25.1 µM [inhibitor, single point]. In the case of `Cc1ccc(OCC(=O)Nc2nc(-c3ccc(Br)cc3)ns2)cc1`, the “activity, negative = inhibition” value is reported as inactive: -17.8%. For `COCCN(C(=O)c1ccc(C)c(S(=O)(=O)N2CCOCC2)c1)c1c(N)n(CC(C)C)c(=O)[nH]c1=O`, the “activity, negative = inhibition” value was inactive: -8.4%. With `O=C(Nc1ccc(F)cc1)Nc1csc2ccccc12` the Potency was active: 14.1 µM. With `COc1ccc(CC(=O)OCC(=O)Nc2ccc(Br)cc2)cc1` the Potency was inconclusive: 35.5 µM [inhibitor, single point]. With `O=[N+]([O-])c1cncc([N+](=O)[O-])c1Nc1ccccc1Cl` the Potency was inconclusive: 35.5 µM [inhibitor, single point]. In the case of `FC(F)(F)c1ccc(/C=N/n2c(C3CCCCC3)n[nH]c2=S)cc1`, the Potency is reported as inconclusive: 22.4 µM [inhibitor, single point]. In the case of `CCN1CCN(CC(=O)N2N=C(c3ccc(OC)cc3)CC2c2ccc(OC)cc2)C(=O)C1=O` (stereo not given), the “activity, negative = inhibition” value is reported as inactive: 10.6%. In the case of `O=C(Nc1ccccc1N1CCOCC1)c1cccc2c(Br)cccc12`, the Potency is reported as inconclusive: 20 µM [inhibitor, single point]. For `CCOc1ccc(S(=O)(=O)N2CCN(c3ccccc3F)CC2)c2cccnc12`, the “activity, negative = inhibition” value was inactive: -19.5%. In the case of `CC(C)c1[nH]nc2c1C(c1cccc(OC(=O)N3CCOCC3)c1)C(C#N)=C(N)O2` (stereo not given), the Potency is reported as inconclusive: 7.08 µM [inhibitor, full curve, poor fit]. With `O=C(NC1(C(F)(F)F)NC(=O)N(C2CCCCC2)C1=O)c1cccs1` (stereo not given) the Potency was inconclusive: 35.5 µM [inhibitor, single point]. In the case of `COc1ccc(C(=O)N/C(=C\c2ccccc2)C(=O)N2CCOCC2)cc1`, the “activity, negative = inhibition” value is reported as inactive: 1.66%. In the case of `COc1ccc(Br)cc1CNC(=O)Cn1ncn2nc(-c3cccs3)cc2c1=O`, the “activity, negative = inhibition” value is reported as inactive: -21.7%. In the case of `COc1ccccc1N1CCN(C(=O)c2ccc3c(c2)CCN3S(=O)(=O)c2ccccc2)CC1`, the Potency is reported as inconclusive: 20 µM [inhibitor, single point].
